Source: PubChem BioAssay AID1476 (National Center for Advancing Translational Sciences (NCATS), 2009)
Out of some 200,000 compounds screened, about 4,500 (2.2%) were called active. Inconclusive means that the source gave no clear call. Such entries were picked first, then a sample of the others. The call rests on the fitted dose curve; in most records, active means well fitted inhibition curve with a large enough effect; inconclusive means small, poorly fitted or top-dose-only effect, or effect the other way; inactive means flat fitted curve, though single readings scatter. Potencies of inconclusive entries are doubtful fits and often do not repeat.

Biological target: Cruzipain (Trypanosoma cruzi) (UniProt P25779)
Test: qHTS Assay for Promiscuous and Specific Inhibitors of Cruzain (without detergent); further: nearly all actives have a fitted effect of over 40% in size;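 on max response, negative = inhibition: plate controls were enzyme without inhibitor for no effect and buffer without enzyme for full effect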
Conditions: purified cruzain, Z-FR-AMC fluorescence, no detergent
Method in brief: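 Purified cruzain at 1.5 nM, pre-incubated 15 min with compound at room temperature in 100 mM sodium acetate pH 5.5, 5 mM DTT, 0.00005% Triton X-100. Reaction started with 2 uM Z-FR-AMC; AMC fluorescence increase over 60 s gives rate.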
Potency means the concentration at half of the fitted maximal effect; tags describe the fitted curve by direction and shape.

Chain of UniProt P25779 (P25779 whole entry, looked up): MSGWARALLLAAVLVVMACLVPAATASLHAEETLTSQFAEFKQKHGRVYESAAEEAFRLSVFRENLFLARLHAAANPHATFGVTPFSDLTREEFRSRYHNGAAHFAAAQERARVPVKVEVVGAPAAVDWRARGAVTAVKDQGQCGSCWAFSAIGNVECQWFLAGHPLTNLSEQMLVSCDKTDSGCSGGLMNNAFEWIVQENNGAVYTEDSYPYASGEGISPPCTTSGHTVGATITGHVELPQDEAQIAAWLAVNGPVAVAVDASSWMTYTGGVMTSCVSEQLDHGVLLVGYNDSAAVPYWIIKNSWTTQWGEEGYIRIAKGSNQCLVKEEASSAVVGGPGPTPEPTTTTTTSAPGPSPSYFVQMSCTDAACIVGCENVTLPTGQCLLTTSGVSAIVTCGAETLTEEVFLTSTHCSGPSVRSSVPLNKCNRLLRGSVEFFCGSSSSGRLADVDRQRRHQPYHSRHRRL

| SMILES | Potency | max response, negative = inhibition |
| --- | --- | --- |
| CCOC(=O)c1cnc2c(C)cc(C)cc2c1Nc1ccc(S(=O)(=O)Nc2ncccn2)cc1 | inconclusive: 39.8 µM [activator, single point] | – |
| COc1ccc(NC(=O)c2c(F)cccc2F)cc1S(=O)(=O)Nc1ccc(Br)cc1 | active: 15.8 µM | – |
| COc1ccc([C@@H]2[C@H]3CN(C(C)=O)CC=C3C(C#N)=C(N)C2(C#N)C#N)c2ccccc12 | inconclusive: 31.6 µM [activator, single point] | – |
| O=[N+]([O-])c1ccc2c(N=Nc3ccc4ccccc4c3O)c(O)cc(S(=O)(=O)O)c2c1 | – | inactive: 11.1% |
| CCCCN(CCCC)S(=O)(=O)c1ccc(NS(=O)(=O)c2ccc(NC(C)=O)cc2)cc1 | inconclusive: 31.6 µM [activator, single point] | – |
| COc1cccc(N2CCN(C(=O)c3cnn(-c4ccccc4Cl)c3C3CCN(C(=O)OC(C)(C)C)CC3)CC2)c1 | inconclusive: 12.6 µM [activator, partial curve] | – |
| CCc1ccc2oc(-c3cc(NC(=O)c4cc(OC)c(OC)c(OC)c4)ccc3O)nc2c1 | – | inactive: 2.17% |
| O=C(Nc1ccc(F)c(F)c1)c1cnc(-c2ccccc2)nc1-c1ccccc1 | inconclusive: 39.8 µM [inhibitor, single point] | – |
| Cc1ccc(S(=O)(=O)NCCCCC(NC(=O)OC(C)(C)C)C(=O)O)cc1 (stereo unspecified) (tested in a mixture with another compound) | inconclusive: 3.98 µM [activator, full curve] | – |
| COc1ccc(-c2noc(-c3cc(C)cc(C)c3)n2)cc1OC | inconclusive: 39.8 µM [activator, single point] | – |
| Cc1c(C(=O)NCc2ccc3c(c2)OCO3)oc2ccc(S(=O)(=O)N3CCC(C)CC3)cc12 | inconclusive: 39.8 µM [inhibitor, single point] | – |
| COc1ccccc1NC(=O)CN1C(=O)C(c2ccc(F)cc2)=NC12CCCCC2 | – | inactive: -2.48% |
| S=C(S)O[C@@H]1C[C@@H]2C[C@H]1[C@@H]1CCC[C@H]21 | – | inactive: 13.3% |
| O=S(=O)(c1ccccc1)N1c2cc(Cl)ccc2Oc2nc3ccccc3nc21 | inconclusive: 39.8 µM [inhibitor, single point] | – |
| COc1cc(/C=C/C(=O)C2C(=O)C=C(C)OC2=O)cc(OC)c1O (stereo unspecified) | inconclusive: 39.8 µM [activator, single point] | – |
| COc1ccc(Cl)cc1NC(=O)COC(=O)c1cc(NS(=O)(=O)c2cccs2)ccc1O | inconclusive: 31.6 µM [inhibitor, single point] | – |
| CNC(=S)N/N=C/c1ccc(OCc2ccccc2)c(Br)c1 | active: 25.1 µM | – |
| COc1ccc(/C=N/NC(=O)c2cccc([N+](=O)[O-])c2)cc1OS(=O)(=O)c1ccc(C)cc1 | inconclusive: 39.8 µM [inhibitor, single point] | – |
| CCOc1ccc(NC(=O)c2cc3c(C)nc4ccccc4c3o2)cc1 | inconclusive: 39.8 µM [activator, single point] | – |
| COc1ccc(C)cc1NC(=O)c1ccc(NC(=O)CC2SC(N3CCCC3)=NC2=O)cc1 (stereo unspecified) | inconclusive: 31.6 µM [activator, single point] | – |
| CCOC(=O)N1CCN(CC(O)COc2ccc(C)cc2C(C)(C)C)CC1 (stereo unspecified) | – | inactive: 20.3% |

| SMILES | Potency | max response, negative = inhibition |
| --- | --- | --- |
| Cc1ccc(NC(=O)C(C)Sc2nc(=O)cc(N)n2-c2cccc(C)c2)cc1 (stereo unspecified) | – | inactive: -8.88% |
| CC1CCc2nn(CC(=O)Nc3ccccc3Cl)cc2C1 (stereo unspecified) | – | inactive: 7.36% |
| COc1ccc(OC)c(CNC(=O)c2ccc(-c3nc(CSc4ccccc4)c(C)o3)cc2)c1 | – | inactive: -27.7% |
| CC(C)NC(=O)c1ccc(-c2cc(C(F)(F)F)ccc2Cl)o1 | inconclusive: 39.8 µM [inhibitor, single point] | – |
| CC(C)Oc1ccc(C(=O)N2CCN(CCc3ccccn3)CC2)cc1 | – | inactive: 1.37% |
| Cc1ccc(CNC(=O)c2ccc(N3CCc4ccccc43)c([N+](=O)[O-])c2)cc1 | inconclusive: 31.6 µM [inhibitor, single point] | – |
| Cc1cc(C(=O)CSc2nnnn2C)c(C)n1CCc1ccc(F)cc1 | active: 25.1 µM | – |
| COC(=O)[C@@]1(Cc2ccc(OC)cc2)[C@H]2c3cc(C(=O)N4CCCC4)n(Cc4ccc(O)c(OC)c4)c3C[C@H]2CN1C(=O)c1ccccc1 | inconclusive: 20 µM [activator, partial curve] | – |
| Cc1nc([N+](=O)[O-])nn1C12CC3CC(CC(Br)(C3)C1)C2 | inconclusive: 31.6 µM [inhibitor, single point] | – |
| COc1ccccc1NC(=O)c1nn(-c2ccc(OC(F)(F)F)cc2)ccc1=O | inconclusive: 39.8 µM [inhibitor, single point] | – |
| CNC(=S)N1N=C(c2ccc(Br)cc2)CC1c1ccc(OC)cc1 (stereo unspecified) | inconclusive: 31.6 µM [inhibitor, single point] | – |
| O=C(COC(=O)CCc1c[nH]c(=O)[nH]1)Nc1ccccc1Cl | – | inactive: -19.9% |
| COc1ccc(CN(Cc2ccco2)c2cnc(S(C)(=O)=O)nc2C(=O)Nc2ccc(C)c(Cl)c2)cc1 | active: 7.94 µM | – |
| COc1ccccc1C(=O)Nc1cc2ccccc2oc1=O | – | inactive: 3.07% |
| c1ccc(C[N+]23CN4CN(CN(C4)C2)C3)cc1 | – | inactive: 8.08% |
| Oc1c(C(c2ccc(Cl)cc2Cl)N2CCN(c3ccccc3)CC2)sc2nc(-c3ccco3)nn12 (stereo unspecified) | inconclusive: 20 µM [activator, single point] | – |
| O=C(NCc1cccc(Cl)c1)c1ccc(NC(=O)N2CC3CCCN3c3ccccc32)cc1 (stereo unspecified) | inconclusive: 31.6 µM [inhibitor, single point] | – |
| Cc1cccc(OCc2nnc(SCC(=O)N(C(C)C)C(C)C)n2Cc2ccco2)c1C | inconclusive: 31.6 µM [activator, single point] | – |
| O=C(Nc1ccc2ccccc2c1)c1nn(C23CC4CC(CC(C4)C2)C3)cc1Br | active: 10 µM | – |
| O=C(CCS(=O)(=O)c1cc2c(cc1Cl)NC(=O)CO2)NCc1ccccc1Cl | inconclusive: 31.6 µM [inhibitor, single point] | – |
